PubChem BioAssay AID1347417 (National Center for Advancing Translational Sciences (NCATS), 2020)
Hit rate of the full screen: of about 120,000 compounds, about 5,300 (4.4%) were called active. The inconclusive results got no clear call from the source; some entries with a clear call stand among them for comparison. The call rests on the fitted dose curve; in most records, active means well fitted inhibition curve with a large enough effect; inconclusive means small, poorly fitted or top-dose-only effect; inactive means no such curve, though single readings can be large or run the other way. Potencies beside an inconclusive call are fits to weak or partial responses and may not hold up.

Test: qHTS Primary assay for Inhibitors of Plasmodium falciparum Dd2 growth in vitro; further: nearly all actives have a fitted effect of over 65% in size;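 on activity, negative = inhibition: plate controls were DMSO vehicle for no effect and reference drug for full effect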
Details: P. falciparum Dd2 growth, SYBR Green, 72 h; activity, negative = inhibition: at 28.9 µM (top of the series) unless noted; series mostly up to 28.9 µM
In short: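 Infected erythrocytes (Dd2, 0.3% parasitemia, 2.5% hematocrit final) are added to compound in RPMI-1640/Albumax II medium, grown 72 h at 37C in low oxygen, then lysed with saponin/Triton-X containing SYBR Green and read by fluorescence.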
Potency means the concentration at half of the fitted maximal effect; tags describe the fitted curve by direction and shape.

Question: With `Cc1nc(-c2cccs2)cc([C@H]2CN3CC[C@H]2C[C@@H]3CNC(=O)C2CCC2)n1` as the compound, how does the Potency read?
Answer: Its Potency is inconclusive: 31.6 µM [inhibitor, single point].

Question: Which Potency does the source give for `CCC(C)(C)NC(=O)c1cccc2c1CCN2C(=O)Nc1cccc(C)c1` here?
Answer: The Potency was inconclusive: 11.2 µM [inhibitor, partial curve, poor fit].

Question: With `COc1ccc(CC(=O)N(C)C2CCc3nnc(C)n3CC2)cc1Cl` (configuration not stated) as the compound, how does the Potency read?
Answer: Its Potency is inconclusive: 3.16 µM [inhibitor, single point].

Question: With `O=C(c1ccc(Cl)cc1)N1CC2(CCCN2Cc2cccnc2)Cc2ccccc21` (configuration not stated) as the compound, how does the Potency read?
Answer: The Potency was active: 10 µM.

Question: Which Potency does the source give for `Cc1noc([C@@H]2CN(CCCc3ccccc3)C[C@H]2CO)n1` here?
Answer: The Potency was inconclusive: 11.2 µM [inhibitor, partial curve, poor fit].

Question: With `COc1cccc(-c2cc3c(=O)n(CCNC(=O)C4CCCCC4)ccn3n2)c1` as the compound, how does the Potency read?
Answer: The Potency was inconclusive: 1.26 µM [inhibitor, partial curve, poor fit].

Question: With `C#CCOc1ccccc1CN1CCN(c2ncc(F)cn2)CC1` as the compound, how does the Potency read?
Answer: The Potency was inconclusive: 8.91 µM [inhibitor, partial curve, poor fit].

Question: Which Potency does the source give for `CCn1nccc1C(=O)N1CC(c2nc(CCOCC3CC3)no2)C1` here?
Answer: The Potency was “inactive”.

Question: With `Cn1nccc1C(=O)N1CCCN(S(C)(=O)=O)c2ccccc21` as the compound, how does the Potency read?
Answer: Its Potency is “inactive”.

Question: Which Potency does the source give for `CCOc1ccccc1CN1CCC2(CCN(Cc3cncs3)CC2)Oc2ccccc21` here?
Answer: Its Potency is inconclusive: 2.24 µM [inhibitor, single point].

Question: With `O=C(NC1CCN(c2cc(-c3cccs3)[nH]n2)C1)c1ccccn1` (configuration not stated) as the compound, how does the Potency read?
Answer: Its Potency is inconclusive: 6.31 µM [inhibitor, partial curve, poor fit].

Question: Which Potency does the source give for `CCCCN(CC)CCNC(=O)CCn1cnc2onc(-c3ccc(F)cc3)c2c1=O` here?
Answer: Its Potency is inconclusive: 11.2 µM [inhibitor, single point].

Question: With `CCOCCn1c(=O)[nH]c2cc(C(=O)NCCn3cnnc3)ccc21` as the compound, how does the Potency read?
Answer: Its Potency is “inactive”.

Question: With `Cc1cccc(-n2cc(-c3ccccc3)c3c(N4CCC(C)CC4)ncnc32)c1` as the compound, how does the Potency read?
Answer: Its Potency is inconclusive: 17.8 µM [inhibitor, single point].

Question: For `Cc1ccc(CNC(=O)CC2=C3CCCCC3NC2=O)cc1` (configuration not stated), which Potency is on record?
Answer: Its Potency is “inactive”.

Question: For `CN1CCN(C(CNC(=O)c2ccccc2F)c2ccc3c(c2)OCO3)CC1` (configuration not stated), which Potency is on record?
Answer: Its Potency is inconclusive: 17.8 µM [inhibitor, single point].

Question: With `Clc1ccc(-c2nnc([C@H]3CCN(Cc4ccco4)C3)o2)cc1` as the compound, how does the Potency read?
Answer: The Potency was inconclusive: 20 µM [inhibitor, partial curve, poor fit].

Question: With `COc1cc(NC(=O)O[C@@H]2CC[C@]3(C)C(CC[C@@H](O)[C@H]3CC(=O)N3CCC[C@H]3CO)[C@]2(C)CO)cc(OC)c1` (some centres not stated) as the compound, how does the Potency read?
Answer: The Potency was inconclusive: 1.26 µM [inhibitor, partial curve, poor fit].

Question: Which Potency does the source give for `COc1cccc(C2NC(=O)c3n[nH]c(-c4cccs4)c32)c1` (configuration not stated) here?
Answer: The Potency was “inactive”.

Question: For `CSCc1ccc(C(=O)N2CCCC(O)(CN3CCCC3)C2)o1` (configuration not stated), which Potency is on record?
Answer: Its Potency is inconclusive: 11.2 µM [inhibitor, single point].

Question: With `COc1ccc(NC(=O)c2c(C)nc3n2CCC(Nc2ccccc2)C3)cn1` (configuration not stated) as the compound, how does the Potency read?
Answer: Its Potency is inconclusive: 15.8 µM [inhibitor, single point].

Question: For `CCn1ccc2cc(S(=O)(=O)N3CCC(C(=O)NCCc4ccccc4Cl)CC3)ccc21`, which Potency is on record?
Answer: Its Potency is inconclusive: 11.2 µM [inhibitor, single point].

Question: For `Cc1cccc(S(=O)(=O)c2cn(Cc3ccccc3)c3cc(N4CCOCC4)c(F)cc3c2=O)c1`, which Potency is on record?
Answer: Its Potency is inconclusive: 10 µM [inhibitor, single point].

Question: Which Potency does the source give for `Cc1nnc(NC(=O)C2c3ccccc3C(=O)N(CC(C)C)C23CCCCC3)s1` (configuration not stated) here?
Answer: The Potency was inconclusive: 2 µM [inhibitor, full curve, poor fit].

Question: With `OC1CN(Cc2ccccc2)CCN(C2CCN(c3ccccc3F)CC2)C1` (configuration not stated) as the compound, how does the Potency read?
Answer: The Potency was inconclusive: 17.8 µM [inhibitor, single point].

Question: Which activity, negative = inhibition does the source give for `Cc1ccccc1NC(=O)N(C)CC1CCOC1` (configuration not stated) here?
Answer: The activity, negative = inhibition was inactive: 12.3% [at 5.79 µM].

Question: Which Potency does the source give for `CCCCOc1ccc(C(=O)Nc2ccc3oc(-c4cccnc4)nc3c2)cc1` here?
Answer: The Potency was “inactive”.

Question: With `O=C(NC1CCCC1)c1ccc(CSc2nc3ccncc3n2Cc2cccc(F)c2)cc1` as the compound, how does the Potency read?
Answer: Its Potency is inconclusive: 10 µM [inhibitor, single point].

Question: Which Potency does the source give for `O=C(NCC1CN(Cc2ccncc2)CC12CN(c1ccccc1)C2)Nc1ccccc1` (configuration not stated) here?
Answer: Its Potency is inconclusive: 1.58 µM [inhibitor, partial curve, poor fit].

Question: For `CCOc1cc(C(=O)NCc2ccc3c(c2)CCN3C(=O)c2ccc(F)cc2)cc(OCC)c1OCC`, which Potency is on record?
Answer: The Potency was inconclusive: 8.91 µM [inhibitor, single point].

Question: For `CCCn1c(=O)c2sccc2n2c(CCCC(=O)NC3CCC(C)CC3)nnc12` (configuration not stated), which Potency is on record?
Answer: Its Potency is inconclusive: 7.08 µM [inhibitor, partial curve].

Question: With `O=C(c1ccncc1)N1CCC(Oc2cccc(F)c2)C1` (configuration not stated) as the compound, how does the Potency read?
Answer: Its Potency is “inactive”.

Question: With `COc1ccc(CN2CCc3oc(C)c(C(=O)N4CCCCCC4)c3C2)cc1` as the compound, how does the Potency read?
Answer: The Potency was inconclusive: 4.47 µM [inhibitor, partial curve, poor fit].

Question: For `O=C1NCCCCCCN(Cc2ccncc2)[C@@H]2CN(Cc3cccnc3)CC[C@@H]12`, which Potency is on record?
Answer: Its Potency is inconclusive: 8.91 µM [inhibitor, single point].

Question: With `COc1ccc(-c2cc(C(=O)NC3CC3)c3c(C4CCNCC4)noc3n2)cc1` as the compound, how does the Potency read?
Answer: The Potency was inconclusive: 17.8 µM [inhibitor, single point].

Question: Which Potency does the source give for `CCc1cccc2c(-c3ccccc3)nc(SCC(=O)Nc3ccccc3OC)nc12` here?
Answer: The Potency was inconclusive: 10 µM [inhibitor, single point].

Question: For `CC(=O)N(C[C@H]1O[C@@H](CC(=O)NC(C)C)[C@H](O)[C@@H]1O)C[C@H]1O[C@@H](CC(=O)NC(C)C)[C@H](O)[C@@H]1O`, which Potency is on record?
Answer: The Potency was “inactive”.

Question: Which Potency does the source give for `O=C(O)c1ccc2c(c1)n(Cc1ccccc1)c(=O)c1ccnn12` here?
Answer: Its Potency is “inactive”.

Question: With `COC(=O)c1ccccc1C(=O)N1CCCC(CCC(=O)Nc2ccc(F)cc2C)C1` (configuration not stated) as the compound, how does the Potency read?
Answer: Its Potency is “inactive”.

Question: With `Cc1cccc(CNC(=O)C2(c3ccc(NS(C)(=O)=O)cc3)CCC2)c1` as the compound, how does the Potency read?
Answer: The Potency was “inactive”.

Question: Which Potency does the source give for `CC(C)(C)CC(=O)N1CCN2C(=O)c3cc(Br)ccc3NC(=O)[C@H]2C1` here?
Answer: The Potency was “inactive”.

Question: With `COc1cccc(CN2CCc3c(cc(C(=O)Nc4ccccc4OC)n3C)C2)c1` as the compound, how does the Potency read?
Answer: The Potency was inconclusive: 2.24 µM [inhibitor, full curve].
